Among all 310,000 compounds or so, about 14,000 (4.5%) showed an effect of 50% or more. Effects have a minus sign here. This is one part of the list.
Target: human ether-à-go-go-related gene (hERG) potassium channel (human, UniProt Q12809)
Assay: primary screen, population patch clamp on CHO cells stably expressing hERG
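Further: peak tail current of the secondary pulse compared with the same well before compound.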

Chain of human ether-à-go-go-related gene (hERG) potassium channel (Q12809 whole entry, looked up): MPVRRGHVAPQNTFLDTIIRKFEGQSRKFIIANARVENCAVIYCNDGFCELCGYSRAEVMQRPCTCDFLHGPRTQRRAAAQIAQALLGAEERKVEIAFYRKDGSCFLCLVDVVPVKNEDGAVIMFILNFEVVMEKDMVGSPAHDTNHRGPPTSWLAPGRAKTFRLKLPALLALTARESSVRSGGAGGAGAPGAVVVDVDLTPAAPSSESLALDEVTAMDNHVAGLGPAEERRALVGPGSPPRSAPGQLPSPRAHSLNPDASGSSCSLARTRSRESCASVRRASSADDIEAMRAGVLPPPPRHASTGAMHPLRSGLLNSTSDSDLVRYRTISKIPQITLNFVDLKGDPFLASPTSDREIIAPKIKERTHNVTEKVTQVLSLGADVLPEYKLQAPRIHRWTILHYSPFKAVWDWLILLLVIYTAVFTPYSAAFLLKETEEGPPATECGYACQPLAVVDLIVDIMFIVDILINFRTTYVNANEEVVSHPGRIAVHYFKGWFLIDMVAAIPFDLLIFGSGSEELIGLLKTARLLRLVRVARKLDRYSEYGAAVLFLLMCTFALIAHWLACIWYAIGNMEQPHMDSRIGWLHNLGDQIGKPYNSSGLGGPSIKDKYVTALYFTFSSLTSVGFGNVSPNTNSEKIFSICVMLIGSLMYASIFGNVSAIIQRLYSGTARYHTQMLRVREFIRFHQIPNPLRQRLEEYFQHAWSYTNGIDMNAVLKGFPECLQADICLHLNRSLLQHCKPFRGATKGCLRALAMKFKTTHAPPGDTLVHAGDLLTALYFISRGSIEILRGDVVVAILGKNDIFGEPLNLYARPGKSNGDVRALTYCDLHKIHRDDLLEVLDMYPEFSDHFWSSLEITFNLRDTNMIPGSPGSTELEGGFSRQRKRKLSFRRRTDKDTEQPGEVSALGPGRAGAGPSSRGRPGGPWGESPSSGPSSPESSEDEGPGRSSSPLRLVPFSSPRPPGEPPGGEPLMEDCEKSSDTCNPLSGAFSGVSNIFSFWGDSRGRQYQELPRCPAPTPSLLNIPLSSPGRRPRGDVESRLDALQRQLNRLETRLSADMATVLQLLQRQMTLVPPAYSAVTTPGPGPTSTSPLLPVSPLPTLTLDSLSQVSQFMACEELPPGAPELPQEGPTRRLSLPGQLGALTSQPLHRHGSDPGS

| Structure (SMILES) | hERG current change (%, negative = inhibition) at 10uM |
| --- | --- |
| C[C@@H]1C(=O)O[C@H]2CC34[C@H]5C[C@@H](C(C)(C)C)[C@]36[C@@H](OC(=O)[C@@H]6O)O[C@@]4(C(=O)O5)[C@]21O (stereo partly drawn) | 13.4% |
| Fc1ccccc1-c1nc2ccccc2[nH]1 | 47.2% |
| Cc1cc(C)n2cc(CSc3nnc(N)s3)nc2n1 | 8% |
| O=c1cc(N2CCC3(CC2)OCCO3)[nH]c(=O)n1C1CCCCC1 | 8.9% |
| O=C(O)c1ccc(Cl)c(S(=O)(=O)N(Cc2ccccc2)c2ccc(F)cc2)c1 | 13.9% |
| Cc1ccc(OCC(=O)NNC(=O)C2CCN(c3nccc(C)n3)CC2)cc1 | -12.3% |
| O=C(O)c1cc2nccc(-c3ccc(F)cc3)n2n1 | 25.4% |
| COc1ccc2sc(N3C(=O)C4CC=C(C)CC4C3=O)nc2c1 (stereo not drawn) | -3.56% |
| CCC(Oc1ccccc1)C(=O)Nc1nc2ccccc2[nH]1 (stereo not drawn) | -8.73% |
| COc1cc(C2c3c(-c4ccccc4O)n[nH]c3C(=O)N2Cc2ccco2)cc(OC)c1OC (stereo not drawn) | -1.67% |
| COCCCn1c2nc3ccccc3nc2c2c(=O)n(-c3ccccc3OC)c(C)nc21 | 10.5% |
| COC(=O)c1ccc(CN(C(=O)N2CCN(C)CC2)S(=O)(=O)c2ccc(C)cc2)cc1 | 15.1% |
| COc1cc(CNn2nnnc2N)cc(Br)c1OCc1c(Cl)cccc1Cl | 14.3% |
| Nc1ccn(CC(=O)N2CCN(c3ccccn3)CC2)c(=O)n1 | 17.2% |
| Cc1cc(NC(=O)c2cccnc2)ccc1NC(=O)c1cc2ccccc2o1 | 11.1% |
| CCOc1cc(C(N)=O)cc(Br)c1OC | 9.28% |
| CCOC(=O)c1ccc(N2C(=O)C3CC=C(C)CC3C2=O)cc1 (stereo not drawn) | 7.74% |
| COc1cc2c3c(c1)c(C1=NC(=S)NC1=O)c(O)n3C(C)(C)C=C2C | 10.4% |
| O=C(CNC(=O)c1ccc(Br)cc1)N/N=C/c1ccc[nH]1 | 20.8% |
| COc1ccc2c(c1)cc(C)c1nnc(SCC(=O)N3CCN(C(=O)c4ccco4)CC3)n12 | -40.1% |
| O=c1[nH]c(CCl)nc2cc(-c3ccc(F)cc3)sc12 | 15.2% |
| COc1ccccc1CCc1nnc(CCC(=O)NCCOc2cccnc2)o1 | 7.9% |

| Structure (SMILES) | hERG current change (%, negative = inhibition) at 10uM |
| --- | --- |
| O=C(/C=C/c1ccco1)NC(=S)Nc1ccccc1N1CCCC1 | -9.61% |
| O=C(c1ccc(Cl)cc1Cl)N1CCN(c2ccc(N3CCOCC3)nn2)CC1 | -27% |
| CC(C)(C)N1C(=O)NC(=O)/C(=C\c2ccc3c(c2)CCN3CCCCl)C1=O | -0.0837% |
| CSc1n[nH]c(=S)n1N | 26.3% |
| CCOc1ccc(-c2nc3n(c(=O)c2C#N)CCCS3)cc1 | 5.87% |
| O=C(c1cc2ccccc2o1)N1CCN(c2cccc(Cl)c2)CC1 | -16.3% |
| Cc1ccc2nc(N3C(=O)C(O)=C(C(=O)c4ccco4)C3c3ccc(O)cc3)sc2c1.O=C(O)C(=O)O (stereo not drawn) | 25.4% |
| CC1CC(C)CN(S(=O)(=O)c2cc3c4c(c2)CCN4C(=O)CC3)C1 (stereo not drawn) | -3.3% |
| CC1CCN(C(=O)CSc2nc3ccccc3c(=O)n2Cc2ccc3c(c2)OCO3)CC1 | -13.6% |
| CCC(=O)Nc1ccc(-c2cc(-c3ccccc3)nc(-c3ccc(NC(=O)CC)cc3)n2)cc1 | 19.1% |
| Cc1cccc(NC(=O)CSc2nnc(-c3ccncc3)n2CC2CCCO2)c1 (stereo not drawn) | -19.5% |
| O=C(COC(=O)c1cncc(Br)c1)NC1CCCCC1 | 16.1% |
| COc1ccc(-n2ncc(S(=O)(=O)c3ccccc3)c2-c2ccc(Cl)cc2)cc1 | 2.36% |
| CCOC(=O)c1[nH]c2c(c1C)C(=O)CC(c1ccc(OCC)c(OC)c1)C2 (stereo not drawn) | -7.59% |
| CN(C)S(=O)(=O)c1ccc(N2CCCC2)c(C(=O)N2CCC(C(N)=O)CC2)c1 | 23.9% |
| CCN(CC)CCN1C(=O)C(=O)/C(=C(/O)c2ccc(OC(C)C)cc2)C1c1cccs1 (stereo not drawn) | 0.529% |
| O=C(COC(=O)[C@@H]1CC(O)CN1S(=O)(=O)c1ccc2c(c1)OCCO2)Nc1ccccc1F (stereo partly drawn) | 14.5% |
| CCn1c(SCC(=O)NNC(=O)Cc2ccccc2)nnc1-c1ccncc1 | 7.12% |
| Cc1ccc(N(C(=O)CNC(=O)c2ccco2)C(C(=O)NC2CCCC2)c2ccncc2)cc1C (stereo not drawn) | 12.5% |
| N#CC1(NC(=O)CN2C(=O)NC(c3ccccc3)(c3ccccc3)C2=O)CCCC1 | -55% |
| CC1CCCN(S(=O)(=O)c2ccc(S(=O)(=O)N3CCC4(CC3)OCCO4)cc2)C1 (stereo not drawn) | 9.55% |
| COC(=O)C(Cc1ccccc1)NC(=O)CCNC(=O)c1ccc(Br)cc1 (stereo not drawn) | -41.3% |

| Structure (SMILES) | hERG current change (%, negative = inhibition) at 10uM |
| --- | --- |
| CS(=O)(=O)N1CCc2cc(C(=O)O)ccc21 | 14.4% |
| COC(=O)[C@H](CCSC)NC(=O)N1CCN(Cc2ccccc2)CC1 | -12.5% |
| CCCc1nc2ccccc2c2nc(N)nn12 | -0.0674% |
| O=C(c1ccccc1)N1CCN(C(=O)c2nn3c(C(F)(F)F)cc(-c4ccccc4)nc3c2Br)CC1 | -5.79% |
| Cn1nc(C(=O)NCCCN2CCCCC2)c2c1-c1ccccc1SC2 | -66% |
| O=C(O)COc1ccccc1/C=N/NC(=O)c1cccc(S(=O)(=O)Nc2cccc(Cl)c2)c1 | 18.6% |
| COC(=O)C1=NNC2(c3ccc(C)cc3)C(=O)N(c3ccc(C)cc3)C(=O)C12 (stereo not drawn) | 16.5% |
| CC(=O)N1CCN(C(=O)COC(=O)c2oc3ccccc3c2C)CC1 | 3.98% |
| O=C(N(c1ccccc1)c1ccccc1)N(c1ccccc1)c1ccccc1 | -7.06% |
| O=C(CCSc1nnc2scc(-c3ccccc3)n12)NCc1ccc2c(c1)OCO2 | -11% |
| COC(=O)CSc1nc2ccc(C)cc2cc1C#N | 21.8% |
| CC1C(c2ccccc2)N(C)CCC12NC(=O)NC2=O (stereo not drawn) | -1.73% |
| COc1ccc(NC(c2ccccc2)P(=O)(Oc2ccccc2)Oc2ccccc2)cc1 (stereo not drawn) | 5.66% |
| CCC1CCC2(CC1)NNC(=S)NN2 | 1.8% |
| CCOc1nc(-c2ccccc2)ccc1-c1noc(COc2ccccc2)n1 | -6.14% |
| O=C(Nc1c(C(=O)O)oc2ccc(Br)cc12)c1ccccc1 | 0.937% |
| C=CCn1c(-c2ccccc2)c[nH]c1=S | 11.1% |
| Clc1ccc(-n2cccc2CN2CCc3c([nH]c4ccccc34)C2c2ccccn2)nc1 (stereo not drawn) | -77% |
| COc1nc(Nc2ccccc2)nc(OC)n1 | 5.84% |
| Cc1cccc(C(=O)OCC(=O)Nc2ccc(F)cc2)c1 | 11% |
| Fc1cccc(Cl)c1CNn1cn[nH]c1=S | 12.3% |
| O=C(CSc1nc2ccccc2n1Cc1ccccc1)N/N=C/c1ccco1 | -60.7% |

| Structure (SMILES) | hERG current change (%, negative = inhibition) at 10uM |
| --- | --- |
| Cc1cccc(Cn2c(C)nc3c(N)c(C)c(C)cc32)c1 | -7.08% |
| CCOC(=O)c1c(NC(=O)COC(=O)Cn2cnc3ccccc32)sc2c1CCC(C)C2 (stereo not drawn) | -3.78% |
| Cc1nn(-c2ccccn2)c(C)c1Oc1ccccc1O | 8.9% |
| N#Cc1cccc(S(=O)(=O)NCc2nnc3ccccn23)c1 | 13.6% |
| O=C(Nc1ccc(C(=O)O)cc1)/C(=C\c1ccccc1)NC(=O)c1ccco1 | 19.8% |
| CCN(Cc1ccc2c(c1)OCCO2)C(=O)CN1C(=O)NC2(CCCCC2)C1=O | -6.49% |
| OCC1(CCCc2ccccc2)CCN(C2CCSCC2)CC1 | -80.5% |
| Cc1cc(C(=O)COC(=O)c2cc(Cl)c(O)c(Cl)c2)c(C)n1C | -9.42% |
| Cc1ccc(-c2cc(C(=O)N3CCc4ccccc4C3)no2)cc1 | 15.2% |
| COc1cc(C(CC(=O)Nc2ncccc2C)N2Cc3ccccc3C2=O)cc(OC)c1OC (stereo not drawn) | 4.39% |
| Oc1ccccc1-c1nc(NCc2ccco2)c2ccccc2n1 | 1.8% |
| CCc1ccc2c(CN(C)Cc3ccccc3OC)cc(=O)oc2c1.O=C(O)C(=O)O | -21.3% |
| O=S1(=O)N=C(N2CCCC2)c2ccccc21 | 18.9% |
| COc1ccccc1-n1nnnc1SCC(=O)Nc1cc(C)on1 | -15.4% |
| COc1ccc(S(=O)(=O)N2CCCOC2CNC(=O)C(=O)NCCc2ccco2)cc1 (stereo not drawn) | 4.42% |
| C=CCc1ccc(OCCOCCNCCCC)c(OC)c1 | -46.5% |
| COc1ccc(CCNC(=O)C/C(C)=N/NC(=O)C2CCCCC2)cc1OC | 8.79% |
| Cc1ccc(NC(=S)N2CCC(O)CC2)c(C)c1 | 16.3% |
| CCOC(=O)C1CN(S(=O)(=O)c2cccs2)c2ccc(CC(=O)OC)cc2O1 (stereo not drawn) | -15.1% |
| COC(=O)CSc1nc(-c2ccccc2)cc(-c2ccco2)c1C#N | 12.5% |
| CC(=O)Nc1ccc(NC(=O)c2ccccc2C)cc1 | 15.4% |
